Reference: paper PMC4336329 (PLoS ONE, 2015)
The whole screen tested about 310,000 compounds, of which about 2,200 (0.71%) showed an effect of 50% or more. Effects have a minus sign here. This is one part of the list.

target: human ether-à-go-go-related gene (hERG) potassium channel (human, UniProt Q12809); assay: primary screen, population patch clamp on CHO cells stably expressing hERG
Sequence (Q12809 whole entry, looked up): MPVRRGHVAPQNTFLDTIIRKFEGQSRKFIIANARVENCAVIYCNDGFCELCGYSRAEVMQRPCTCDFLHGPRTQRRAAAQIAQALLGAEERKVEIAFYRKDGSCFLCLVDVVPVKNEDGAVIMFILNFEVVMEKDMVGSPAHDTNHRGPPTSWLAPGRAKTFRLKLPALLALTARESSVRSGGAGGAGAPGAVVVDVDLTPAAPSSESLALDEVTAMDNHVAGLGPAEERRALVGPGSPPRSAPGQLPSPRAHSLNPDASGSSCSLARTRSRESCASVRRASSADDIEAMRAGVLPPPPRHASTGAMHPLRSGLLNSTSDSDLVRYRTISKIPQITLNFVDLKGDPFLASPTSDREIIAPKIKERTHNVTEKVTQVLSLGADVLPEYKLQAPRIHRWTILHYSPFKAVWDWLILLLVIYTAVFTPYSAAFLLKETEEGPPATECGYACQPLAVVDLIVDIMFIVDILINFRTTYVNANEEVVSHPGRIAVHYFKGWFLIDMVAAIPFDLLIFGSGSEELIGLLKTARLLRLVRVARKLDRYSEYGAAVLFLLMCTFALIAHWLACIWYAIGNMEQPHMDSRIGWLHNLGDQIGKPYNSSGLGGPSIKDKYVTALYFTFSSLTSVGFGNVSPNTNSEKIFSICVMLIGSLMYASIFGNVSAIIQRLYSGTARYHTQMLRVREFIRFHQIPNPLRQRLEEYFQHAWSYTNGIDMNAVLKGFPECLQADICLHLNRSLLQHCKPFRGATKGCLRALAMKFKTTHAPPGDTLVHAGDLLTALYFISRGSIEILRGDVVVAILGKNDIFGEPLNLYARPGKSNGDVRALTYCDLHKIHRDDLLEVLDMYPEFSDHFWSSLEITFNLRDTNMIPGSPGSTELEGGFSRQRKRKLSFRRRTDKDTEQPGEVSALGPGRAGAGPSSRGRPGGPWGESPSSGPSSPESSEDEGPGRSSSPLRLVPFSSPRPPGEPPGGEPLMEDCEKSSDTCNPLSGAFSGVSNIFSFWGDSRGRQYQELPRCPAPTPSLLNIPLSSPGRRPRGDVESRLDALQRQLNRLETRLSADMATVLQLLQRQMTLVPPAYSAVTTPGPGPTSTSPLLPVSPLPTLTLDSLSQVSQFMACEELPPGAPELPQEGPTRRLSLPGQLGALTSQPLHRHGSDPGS

Row | SMILES | hERG current change (%, negative = inhibition) at 1uM [%]
1 | CC1CCc2ccccc2N1C(=N)N(C)C.Cl (stereo not drawn) | 10.3
2 | COCC(=O)Nc1ccc(F)cc1 | 17.8
3 | COc1ccc(CCCC(=O)NC2CCCCC2)cc1 | 11.1
4 | CCC(COC(C)=O)Nc1nc2c([nH]1)c(=O)n(C)c(=O)n2C (stereo not drawn) | 11.8
5 | Cc1ccc2nc(-c3cccs3)oc(=O)c2c1 | 7.58
6 | CCOP(=O)(OCC)/C(C#N)=C/c1cc(OC)ccc1OC | 15.9
7 | O=C(OCc1ccc([N+](=O)[O-])cc1)C1CC(=O)N(Cc2ccccc2Cl)C1 (stereo not drawn) | -10.3
8 | Cc1ccc(C(C)C)c(OCC(O)CN2CCc3ccccc3C2)c1.Cl (stereo not drawn) | -26.4
9 | Cc1cccc(-n2ncc3c2CCCC3NC(=O)CCN2Cc3ccccc3C2=O)c1C (stereo not drawn) | 8.29
10 | CCOC(=O)C1CCCN(C(=O)c2ccc(S(=O)(=O)N3CCOCC3)cc2)C1 (stereo not drawn) | 14.4
11 | O=C(Nc1cccc(Oc2ccc3c(c2)C(=O)NC3=O)c1)c1ccco1 | 8.29
12 | CC(C)c1nc2n[nH]c(N)c2c2c1CCC2 | 14.3
13 | CCOC(=O)C1CCN(S(=O)(=O)c2ccc(C)c(C(=O)NC3CCCCC3)c2)CC1 | -27.7
14 | CN(CC(=O)Nc1ccc(Cl)cc1)C(=O)c1ccc(-n2cncn2)c([N+](=O)[O-])c1 | -26.2
15 | CCOc1ccc(CN(CCCl)CCCl)cc1C(=O)OC.Cl | 16.5
16 | O=C(O)c1ccccc1NCCO | 18
17 | c1ccc(-c2ccc(-c3csnn3)cc2)cc1 | 14.6
18 | O=C1S/C(=C\c2ccc(N3CCOCC3)o2)C(=O)N1c1ccccc1 | 10.2
19 | O=C(NCc1nnnn1-c1ccc(F)c(F)c1)c1ccc(S(=O)(=O)N2CCOCC2)cc1 | 6.59

Row | SMILES | hERG current change (%, negative = inhibition) at 1uM [%]
20 | CCN(CC)S(=O)(=O)c1cc(C(=O)O)ccc1OC | 10.8
21 | CC(=O)Nc1nc2ccc(Br)cc2s1 | 0.269
22 | COc1cccc(-c2ccc(NC(=O)C3CCCN(Cc4cnc(C)n4C)C3)cc2)c1 (stereo not drawn) | -4.85
23 | O=C(c1ccc(-n2cncn2)c([N+](=O)[O-])c1)N1CCN(S(=O)(=O)c2c(F)cccc2F)CC1 | -14.2
24 | COc1cccc2[nH]c3c(Cl)ncnc3c12 | 11.6
25 | COc1ccc(NC(=O)CCC(=O)c2ccc(C(C)C)cc2)cc1 | 17.5
26 | N#Cc1ccccc1Sc1ccccc1C(=O)OCc1nnc(-c2ccccc2)o1 | 6.43
27 | O=C(CCc1nnc(CCCCc2ccccc2)o1)N1CCC(N2CCCC2)CC1 | 12.1
28 | O=C(CSCc1ccc(Cl)cc1)N/N=C/c1ccc(OCC(=O)Nc2ccccc2)cc1 | 12.6
29 | COc1cc2ccccc2cc1C(=O)OCC(=O)c1c(N)n(C)c(=O)n(C)c1=O | -0.545
30 | O=C(CN1CCCN(S(=O)(=O)c2ccc(F)cc2)CC1)Nc1c(Cl)cccc1Cl | 7.86
31 | CCCCn1c(N)c(N(CCOC)C(=O)CCCc2nc3ccccc3s2)c(=O)[nH]c1=O | 10.6
32 | O=C1C=C(c2cnc3ccccc3c2)C[C@@H](c2ccc3c(c2)OCO3)C1 | 8.8
33 | CC(C)(C)[C@H]1C=C(C(N)=O)O[C@@H](OCCCCO)C1 | 11.8
34 | Cc1cc(C)c2[nH]c(C(=O)Nc3ccc(F)cc3Br)cc2c1 | 15.2
35 | Cc1n[nH]c(C)c1CCN(C)Cc1cn(C)nc1-c1ccccc1F | 9.02
36 | CCc1ccc(CN(C)C(=O)C2CCC(=O)N(CCCN3CCCC3=O)C2)cc1 (stereo not drawn) | -3.86
37 | CC1CCCN(c2ccc(C(=O)NCC3CCCO3)cn2)C1 (stereo not drawn) | 2.56
38 | Cc1ccc(S(=O)(=O)N(CC(=O)NCC2CCCO2)c2cccc([N+](=O)[O-])c2)cc1 (stereo not drawn) | -12.8

Row | SMILES | hERG current change (%, negative = inhibition) at 1uM [%]
39 | Cc1ccc(S(=O)(=O)c2nc(-c3ccccc3)oc2SCC(=O)NCC2CCCO2)cc1 (stereo not drawn) | 15.8
40 | Cc1cc(-c2nnc(CCC(=O)NCc3ccc(OC(F)(F)F)cc3)o2)no1 | 7.21
41 | COc1ccc(-c2cn3c(C)c(C(=O)NCCN4CCOCC4)sc3n2)cc1 | -4.48
42 | CCCNC(=O)[C@H]1N2C(=O)c3c(ccc(OC)c3OC)C2SC1(C)C (stereo partly drawn) | 15
43 | COC(=O)/C(C#N)=C/c1c[nH]c2ccccc12 | -3.57
44 | Cc1nnsc1C(=O)N1CCN(c2ccc(F)cc2)CC1 | 8.55
45 | O=C(Nc1ncc2c(n1)-c1ccccc1OC2)c1ccc(Cl)cc1 | 10.7
46 | CCOC(=O)c1cn(CC)c2cc(N3CCOCC3)c(F)cc2c1=O | 11.8
47 | O=C(c1ccc(-c2ccc(Cl)cc2Cl)o1)N1CCOCC1 | -10.5
48 | O=C(/C=C/c1ccccc1)NC(=S)Nc1ccccc1O | 10.9
49 | c1ccc(COc2ccc(OCCn3cncn3)cc2)cc1 | 4.66
50 | COc1ccc(CC(=O)NCCS(=O)(=O)N2CCN(c3ccccc3OC)CC2)cc1 | 5.75
51 | COc1ccc(NC(=O)CCN2C(=O)c3ccccc3S2(=O)=O)cc1 | -3.43
52 | COc1ccc(S(=O)(=O)N2CCCCCC2)cc1C(=O)OCC(=O)NCC(C)C | 0.211
53 | Cc1ccc2c(c1)c1c3n2CCCN(Cc2ccccc2)C3CCC1 (stereo not drawn) | 3.58
54 | COc1cccc(OCc2cc(C(=O)N3CCNC(=O)C3Cc3ccccc3)no2)c1 (stereo not drawn) | 17
55 | Cc1cc(N2CCN(S(=O)(=O)c3ccc(Cl)c(Cl)c3)CC2)c2ccccc2n1 | 4.58
56 | O=C(O)CCc1nnc(SCC(=O)Nc2ccc(Br)cc2)[nH]c1=O | 12.2
57 | CC(=O)N1CCc2c(sc(NC(=O)CN3C(=O)CCC3=O)c2C(N)=O)C1 | 1.19
